Data on 2 sequences can be found in the supplement of paper PMC5998384.

Series [1] relates to HeLa Kyoto. Nature of the series: thermal stability score vs G1/S (z-score of summed log2 fold changes over temperatures); higher = more thermally stable than in G1/S.
Series [2] deals with HeLa Kyoto. In words: solubility in G1/S (NP-40 vs SDS abundance) (log2 ratio); higher = more soluble. As to conditions: cell cycle stage: G1/S.
Series [3] concerns HeLa Kyoto. Nature of the series: solubility change mitosis vs G1/S (difference of NP-40 vs SDS log2 ratios) (log2 ratio difference); higher = more soluble in mitosis.
The subject of series [4] is HeLa Kyoto. In words: melting temperature (median over replicates), in situ; higher = more thermally stable.
Where [5] appears, read: cell cycle stage: early G1 (4.5 h after nocodazole release).
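Wherever melting temperature (median over replicates), in situ is given: HeLa Kyoto cells synchronized by double thymidine or nocodazole block, proteins quantified by TMT10plex mass spectrometry, three independent biological replicates.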
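Wherever solubility change mitosis vs G1/S (difference of NP-40 vs SDS log2 ratios) is given: synchronized HeLa Kyoto cells (double thymidine block for G1/S, nocodazole release for mitosis), protein amounts in NP-40 versus SDS lysates quantified by mass spectrometry, three biological replicates.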
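Wherever solubility in G1/S (NP-40 vs SDS abundance) is given: HeLa Kyoto cells arrested at G1/S by double thymidine block, proteins quantified by TMT10plex mass spectrometry in mild NP-40 versus SDS extracts, three biological replicates.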
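Wherever thermal stability score vs G1/S (z-score of summed log2 fold changes over temperatures) is given: synchronized HeLa Kyoto cells, proteins quantified by TMT10plex mass spectrometry, three biological replicates, mitosis taken 0.5 h after nocodazole release, G1/S directly after double thymidine block.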

With “MSSAAEPPPPPPPESAPSKPAASIASGGSNSSNKGGPEGVAAQAVASAASAGPADAEMEEIFDDASPGKQKEIQEPDPTYEEKMQTDRANRFEYLLKQTELFAHFIQPAAQKTPTSPLKMKPGRPRIKKDEKQNLLSVGDYRHRRTEQEEDEELLTESSKATNVCTRFEDSPSYVKWGKLRDYQVRGLNWLISLYENGINGILADEMGLGKTLQTISLLGYMKHYRNIPGPHMVLVPKSTLHNWMSEFKRWVPTLRSVCLIGDKEQRAAFVRDVLLPGEWDVCVTSYEMLIKEKSVFKKFNWRYLVIDEAHRIKNEKSKLSEIVREFKTTNRLLLTGTPLQNNLHELWSLLNFLLPDVFNSADDFDSWFDTNNCLGDQKLVERLHMVLRPFLLRRIKADVEKSLPPKKEVKIYVGLSKMQREWYTRILMKDIDILNSAGKMDKMRLLNILMQLRKCCNHPYLFDGAEPGPPYTTDMHLVTNSGKMVVLDKLLPKLKEQGSRVLIFSQMTRVLDILEDYCMWRNYEYCRLDGQTPHDERQDSINAYNEPNSTKFVFMLSTRAGGLGINLATADVVILYDSDWNPQVDLQAMDRAHRIGQTKTVRVFRFITDNTVEERIVERAEMKLRLDSIVIQQGRLVDQNLNKIGKDEMLQMIRHGATHVFASKESEITDEDIDGILERGAKKTAEMNEKLSKMGESSLRNFTMDTESSVYNFEGEDYREKQKIAFTEWIEPPKRERKANYAVDAYFREALRVSEPKAPKAPRPPKQPNVQDFQFFPPRLFELLEKEILFYRKTIGYKVPRNPELPNAAQAQKEEQLKIDEAESLNDEELEEKEKLLTQGFTNWNKRDFNQFIKANEKWGRDDIENIAREVEGKTPEEVIEYSAVFWERCNELQDIEKIMAQIERGEARIQRRISIKKALDTKIGRYKAPFHQLRISYGTNKGKNYTEEEDRFLICMLHKLGFDKENVYDELRQCIRNSPQFRFDWFLKSRTAMELQRRCNTLITLIERENMELEEKEKAEKKKRGPKPSTQKRKMDGAPDGRGRKKKLKL [SMARCA5]”, the values for the thermal stability score in series [1] (setting [5]) and in series [1] (cell cycle stage: mitosis) were 2.44 and 6.98, respectively. The “solubility in G1/S (log2)” value in series [2] is -1.11. In addition, in series [3], the “solubility change mitosis (log2)” value came to 0.525. The results for the melting temperature in series [4] (cell cycle stage: G1/S) and in series [4] (cell cycle stage: mitosis) were 47.6 °C and 49.7 °C, respectively.

With “MAEPLKEEDGEDGSAEPPGPVKAEPAHTAASVAAKNLALLKARSFDVTFDVGDEYEIIETIGNGAYGVVSSARRRLTGQQVAIKKIPNAFDVVTNAKRTLRELKILKHFKHDNIIAIKDILRPTVPYGEFKSVYVVLDLMESDLHQIIHSSQPLTLEHVRYFLYQLLRGLKYMHSAQVIHRDLKPSNLLVNENCELKIGDFGMARGLCTSPAEHQYFMTEYVATRWYRAPELMLSLHEYTQAIDLWSVGCIFGEMLARRQLFPGKNYVHQLQLIMMVLGTPSPAVIQAVGAERVRAYIQSLPPRQPVPWETVYPGADRQALSLLGRMLRFEPSARISAAAALRHPFLAKYHDPDDEPDCAPPFDFAFDREALTRERIKEAIVAEIEDFHARREGIRQQIRFQPSLQPVASEPGCPDVEMPSPWAPSGDCAMESPPPAPPPCPGPAPDTIDLTLQPPPPVSEPAPPKKDGAISDNTKAALKAALLKSLRSRLRDGPSAPLEAPEPRKPVTAQERQREREEKRRRRQERAKEREKRRQERERKERGAGASGGPSTDPLAGLVLSDNDRSLLERWTRMARPAAPALTSVPAPAPAPTPTPTPVQPTSPPPGPVAQPTGPQPQSAGSTSGPVPQPACPPPGPAPHPTGPPGPIPVPAPPQIATSTSLLAAQSLVPPPGLPGSSTPGVLPYFPPGLPPPDAGGAPQSSMSESPDVNLVTQQLSKSQVEDPLPPVFSGTPKGSGAGYGVGFDLEEFLNQSFDMGVADGPQDGQADSASLSASLLADWLEGHGMNPADIESLQREIQMDSPMLLADLPDLQDP [MAPK7]”, the thermal stability score is 1.5 in series [1] (setting [5]) and 0.555 in series [1] (cell cycle stage: mitosis). Also, in series [2], the “solubility in G1/S (log2)” value came out at 0.0455. For the same sequence, the “solubility change mitosis (log2)” value in series [3] was -0.123. The melting temperature in series [4] (cell cycle stage: G1/S) is 49.7 °C; in series [4] (cell cycle stage: mitosis) it was 50.2 °C.
